From patent EP2386565A2, “Compounds and methods to inhibit or augment an inflammatory response” (Cambridge Enterprise Ltd., priority 1999, dated 2000)
Not every detail of the peptide structures is certain; ends, links or a residue may be inferred. Non-standard residues stand in square brackets, D forms with d. Residues, ends and D or L forms follow the SMILES beside them. No end group written: not given here.

Columns and labels:
[1] = biological target: T1, Recombinant human latent TGF-β1 (Homo sapiens, UniProt P01137); assay: TGF-beta activation, direct ELISA-type assay with R2X capture; assay type: biochemical; parameters: key: +: The number of pluses is a qualitative indicating of the activity of each peptide in each assay; ++: The number of pluses is a qualitative indicating of the activity of each peptide in each assay; +++: The number of pluses is a qualitative indicating of the activity of each peptide in each assay; ++++: The number of pluses is a qualitative indicating of the activity of each peptide in each assay; +++++: The number of pluses is a qualitative indicating of the activity of each peptide in each assay; -: A minus indicates no detectable activity in the assay; settings: test peptide at 100 nM, 37°C, 90 minutes
T1 construct: 200 ng of latent TGF-β1 (at 20 µg/ml) was incubated with test peptide; purchased R&D Systems; host or cells: CHO cells
T1 sequence (P01137 30-278 limits assumed): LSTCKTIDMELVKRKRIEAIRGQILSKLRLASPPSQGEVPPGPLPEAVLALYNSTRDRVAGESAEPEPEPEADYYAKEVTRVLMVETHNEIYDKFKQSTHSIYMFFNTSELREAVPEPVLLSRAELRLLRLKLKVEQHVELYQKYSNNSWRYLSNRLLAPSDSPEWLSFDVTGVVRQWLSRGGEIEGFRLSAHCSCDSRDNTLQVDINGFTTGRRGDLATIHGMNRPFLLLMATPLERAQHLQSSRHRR

[2] = system: chemokine-induced THP-1 migration; assay: THP-1 trans-well migration assay, several chemokines together (averages, selectivity, pan-chemokine statements); assay type: cell-based, human; settings: for Chemokine antagonist: active against migration induced by at least one of IL-8, SDF-1α, MCP-1, MIP1α
Experimental: To determine whether an agent inhibits a chemokine-induced activity, such as macrophage recruitment, varying amounts of the agent are mixed with cells in the presence of a known chemoattractant. […] Chemokine (such as MCP-1, MIP1α, IL8 or SDF-1α), at a concentration known to cause significant migration of THP-1 cells in the trans-well migration assay, is placed in the lower compartment (Figure 1). Cells are then incubated at 37°C for a period sufficient to allow migration, e.g., 4 hours. After incubation, the cells are gently removed from the top of the filter with a pipette, 20 µl of 20 mM EDTA in simple PBS is added into each top well, and incubated for 20 minutes at 4°C. The filter is carefully flushed with media using a gentle flow, and removed. […] The media is carefully aspirated from each well, and the converted dye is solubilized by 20 µl of DMSO.
Chemotaxis was induced in a 96-well disposable chemotaxis chamber fitted with a 5 µM polycarbonate filter (PVP free, ChemoTX, Neuroprobe Inc., Cabin John). […] The framed filter was aligned with the holes in the corner of the filter frame and placed over the wells.
(§1) Peptides were dissolved in Milli Q water and then serially diluted in culture medium. In most cases, the serially diluted peptides were added to the upper compartment of the chemotaxis chamber. The chamber was incubated at 37°C in a humidified atmosphere of 5% CO2 for 4 hours.
After incubation, the cells were gently removed from the top of the filter with a pipette, 20 µl of 20 mM EDTA in PBS was added into each top well, and the mixture was incubated for 20 minutes at 4°C. The filter was then carefully flushed with media using a gentle flow, and removed. […] The curve was based on a two-fold dilution series of THP-1 cells (top standard 100,000 cells in 29 µl). […] The media was carefully aspirated from each well, and the converted dye was solubilized by 20 µl of DMSO.
Representative chemokines included […] ("CC"), MIP-1α and RANTES, and two alpha-chemokines ("CXC"), IL-8 and SDF-1α. Additionally, to determine the specificity ofpeptide 3(1-12)[MCP-1]
The number of pluses is a qualitative indicating of the activity of each peptide in each assay.

[3] = system: SDF-1α induced THP-1 migration; assay: THP-1 trans-well migration assay, SDF-1α as chemoattractant; assay type: cell-based, human; settings: for ED50 (µM) versus SDF-1α: inhibition of THP-1 migration, n.s./ns = not statistically significant
Experimental: (§2) To determine whether an agent inhibits a chemokine-induced activity, such as macrophage recruitment, varying amounts of the agent are mixed with cells in the presence of a known chemoattractant. For example, a range of known concentrations of an agent, e.g., a chemokine peptide, is incubated with a defined number (e.g., 10^4 - […]) of human THP-1 monocyte cells in individual wells of the top compartment of a trans-well plate. Chemokine (such as MCP-1, MIP1α, IL8 or SDF-1α), at a concentration known to cause significant migration of THP-1 cells in the trans-well migration assay, is placed in the lower compartment (Figure 1). Cells are then incubated at 37°C for a period sufficient to allow migration, e.g., 4 hours. After incubation, the cells are gently removed from the top of the filter with a pipette, 20 µl of 20 mM EDTA in simple PBS is added into each top well, and incubated for 20 minutes at 4°C. The filter is carefully flushed with media using a gentle flow, and removed. A standard curve consisting of a two-fold dilution series of THP-1 cells (in 29 µl) is prepared to accurately quantify the number of cells that have migrated. Migrated cells are stained with 3 µl of MTT stock dye solution which is added directly into each well (5 mg/ml in RPMI-1640 without phenol red, Sigma Chemical Co.) and incubated at 37°C for 4 hours. The media is carefully aspirated from each well, and the converted dye is solubilized by 20 µl of DMSO. Absorbance of converted dye is measured at a wavelength of 595 nm using an ELISA plate reader. The number of migrated cells in each well is then determined by interpolation of the standard curve (see also Imai et al.,J. Biol. Chem., 272, 15036 (1997)).
(§3) For this assay, THP-1 cells were maintained at a density of 4 × 10^5 cells per ml in RPMI-1640 supplemented with 10% fetal calf serum + 20 µM 2-mercaptoethanol. Chemotaxis was induced in a 96-well disposable chemotaxis chamber fitted with a 5 µM polycarbonate filter (PVP free, ChemoTX, Neuroprobe Inc., Cabin John). Twenty-nine µl of chemoattractant (recombinant human chemokine; 50 ng/ml, i.e., 5.9 nM) or control (100 ng/ml TGFβ) was added to the lower compartment of each well. The framed filter was aligned with the holes in the corner of the filter frame and placed over the wells.
as §1, with “Five × 10^4 THP-1 cells in 25 µl of RPMI-1640 were added to the upper compartment. Peptides” for “Peptides”
(§4) After incubation, the cells were gently removed from the top of the filter with a pipette, 20 µl of 20 mM EDTA in PBS was added into each top well, and the mixture was incubated for 20 minutes at 4°C. The filter was then carefully flushed with media using a gentle flow, and removed. A standard curve was prepared to accurately quantify the number of THP-1 cells that had migrated. The curve was based on a two-fold dilution series of THP-1 cells (top standard 100,000 cells in 29 µl). Cells which had migrated, and in separate wells, the cells in the standards, were stained with 3 µl of MTT stock solution which was added directly into each well (5 mg/ml in RPMI 1640 without phenol red, Sigma Chemical Co.) and incubated at 37°C for 4 hours. The media was carefully aspirated from each well, and the converted dye was solubilized by 20 µl of DMSO. Absorbance of converted dye was measured at a wavelength of 595 nm using an ELISA plate reader. The number of cells that had migrated in each well was determined by interpolation of the standard curve.
(§5) To investigate the receptor specificity of peptide 3 inhibition, the ED50 was determined for peptide 3(1-12)[MCP-1] (SEQ ID NO:1) inhibition of THP-1 migration induced by chemokines which signal through different receptors than MCP-1 receptors. […]

HIV = assay type: cell-based; settings: ns = not significant
[4] = system: MIP1α induced THP-1 migration; assay: THP-1 trans-well migration assay, MIP1α as chemoattractant; assay type: cell-based, human; settings: inhibition of THP-1 migration; n.s./ns = not statistically significant
Experimental: as §2, §3
as §1, with “Five × 10^4 THP-1 cells in 25 µl of RPMI-1640 were added to the upper compartment. Peptides” for “Peptides”
as §4, §5

[5] = system: MCP-1 induced THP-1 migration; assay: THP-1 trans-well migration assay, MCP-1 as chemoattractant; assay type: cell-based, human; settings: inhibition of THP-1 migration; n.s./ns = not statistically significant
Experimental: as §2
Any method suitable for counting cells can be used, for example, counting with a hemocytometer, incubation of the cells with MTT (see above), or FACS analysis. A negative control assay is also performed, using TGF-β or another non-chemokine chemoattractant (e.g., IL1β or TNFα). To assess whether the agent is cytotoxic, the same concentrations of agent are incubated with THP-1 cells. Agents which 1) are not cytotoxic at levels which inhibit migration, 2) are ineffective at inhibiting the negative control-induced migration, and 3) reduce or inhibit chemokine-induced THP-1 migration, are agents which fall within the scope of the invention.
as §3, with “Twenty-nine µl of chemoattractant (recombinant human chemokine; 50 ng/ml, i.e., 5.9 nM) or control (100 ng/ml TGFβ) was added to the lower compartment of each well.” left out
as §1, with “Five × 10^4 THP-1 cells in 25 µl of RPMI-1640 were added to the upper compartment. Peptides” for “Peptides”
as §4, with “Absorbance of converted dye was measured at a wavelength of 595 nm using an ELISA plate reader. The number of cells that had migrated in each well was determined by interpolation of the standard curve.” left out

Row | Compound | TGF-beta Activator [1] | Chemokine antagonist [2] | ED50 (µM) versus SDF-1α [3] | % virus inhibition (HIV) | ED50 (µM) versus MIP1α [4] | ED50 (µM) versus MCP-1 [5] | other results
1 | NCCCC[C@H](NC(=O)[C@H](CC(=O)O)NC(=O)[C@@H](N)CCCCN)C(=O)O [KDK] (H-Lys-Asp-Lys-OH) | - | + |  |  |  |  | 
2 | CC[C@H](C)[C@H](NC(=O)[C@H](CCCNC(=N)N)NC(=O)[C@H](CCCNC(=N)N)NC(=O)[C@H](Cc1ccc(O)cc1)NC(=O)[C@@H](N)CO)C(=O)N[C@H](C(=O)N[C@@H](CO)C(=O)N[C@@H](CO)C(=O)N[C@@H](CCCCN)C(=O)N[C@@H](CS)C(=O)O)[C@@H](C)O |  |  | ns | ns | ns | ns | 
3 | NCCCC[C@H](NC(=O)CNC(=O)[C@@H](N)CCCCN)C(=O)O [KGK] (H-Lys-Gly-Lys-OH) | - | - |  |  |  |  | 
4 | C[C@@H](O)[C@H](NC(=O)[C@@H](N)CCCCN)C(=O)N[C@@H](CCCCN)C(=O)O [KTK] (H-Lys-Thr-Lys-OH) | - | - |  |  |  |  | 
5 | CC[C@H](C)[C@H](NC(=O)[C@@H](N)CCCCN)C(=O)N[C@@H](CCCCN)C(=O)O [KIK] (H-Lys-Ile-Lys-OH) | ++ | ++ |  |  |  |  | 
6 | NCCCC[C@H](NC(=O)[C@H](Cc1ccccc1)NC(=O)[C@@H](N)CCCCN)C(=O)O [KFK] (H-Lys-Phe-Lys-OH) | ++++ | - |  |  |  |  | 
7 | TSSKC [TSSKC] |  |  | ns | ns | ns | ns | 
8 | CC(C)[C@@H](N)C(=O)NCC(=O)N1CCC[C@@H]1C(=O)N[C@H](CCCCN)C(=O)N[C@H](CO)C(=O)N[C@H](CS)C(=O)N[C@H](CCC(N)=O)C(=O)N[C@H](CO)C(=O)N[C@H](CO)C(=O)N[C@@H](C(=O)N[C@H](CCC(=O)O)C(=O)N[C@H](Cc1ccccc1)C(=O)N[C@H](Cc1ccc(O)cc1)C(=O)N[C@H](CC(=O)O)C(=O)O)[C@H](C)O [vgpkscqsstefyd] (H-[dV]G[dP][dK][dS][dC][dQ][dS][dS][dT][dE][dF][dY][dD]-OH) |  |  | ns | ns | ns | ns | 
9 | CPKEAV [CPKEAV] |  |  | ns | ns | ns | ns | 
10 | DYFETSSQC |  |  | ns | ns | ns | ns | 
11 | NCCCC[C@H](NC(=O)[C@H](Cc1c[nH]c2ccccc12)NC(=O)[C@@H](N)CCCCN)C(=O)O [KWK] (H-Lys-Trp-Lys-OH) | - | - |  |  |  |  | 
12 | NCCCC[C@H](NC(=O)[C@H](CCC(=O)O)NC(=O)[C@@H](N)CCCCN)C(=O)O [KEK] (H-Lys-Glu-Lys-OH) | - | + |  |  |  |  | 
13 | CSKPGV [CSKPGV] |  |  | ns | ns | ns | ns | 
14 | NCCCC[C@H](NC(=O)[C@H](Cc1ccc(O)cc1)NC(=O)[C@@H](N)CCCCN)C(=O)O [KYK] (H-Lys-Tyr-Lys-OH) | +++++ | - |  |  |  |  | 
15 | NCCCC[C@H](NC(=O)[C@H](CO)NC(=O)[C@@H](N)CCCCN)C(=O)O [KSK] (H-Lys-Ser-Lys-OH) | - | - |  |  |  |  | 
16 | CC(C)C[C@H](NC(=O)[C@@H](N)CCCCN)C(=O)N[C@@H](CCCCN)C(=O)O [KLK] (H-Lys-Leu-Lys-OH) | +++ | ++++ |  |  |  |  | % inhibition at 100 µM versus SDF-1α ([3]; THP-1 migration, agent at 100 µM, n.s. or dash = no statistically significant inhibition): 87 ± 6%; ED50 for inhibition of the one chemokine the tripeptide is specific for (column AVERAGE ED50, footnote f) [2]: 0.1-10^f µM; CC specificity / selectivity ratio ([2]; Table 5: average ED50 versus SDF1 and IL8 divided by average ED50 versus MCP-1 and MIP1α): < 0.1
